Reference: the RNAGym collection of RNA variant scans (doi:10.1093/nar/gkz1192)
Read counts are not given, so values of variants with three or more changes are uncertain.

B1: CPEB3 Ribozyme (parent)
chain: UAACAGGGGGCCACAGCAGAAGCGUUCACGUCGCAGCCCCUGUCAGAUUCUGGUGAAUCUGCGAAUUCUGCUGUAUAUCUC

Variants of: B1
Test: self-cleavage, relative activity (ratio to wild type); higher = more cleavage; in vitro, sequencing
Method in brief: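 For each CPEB3 ribozyme variant, relative activity is its cleaved/total read fraction divided by the unmutated ribozyme's. Barcoded error-prone PCR libraries were transcribed by T7 RNA polymerase (5 hours, 37°C) and held in DNase I for 15 min before an EDTA stop, with cleavage occurring throughout. Template-switching reverse transcription and Illumina sequencing were used to read the RNAs. A 5-read minimum applied, and results are the mean of three batches.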

Variant | self-cleavage
A13U C34U A35G U60C | 0.15
A13U C37U A56U | 0.21
A13U C38U C40U A64G U67C | 0.13
A13U C40U G63A | 0.79
A13U C40U U80C | 1.16
A13U C68U U80C | 1.21
A13U G16A A20U | 0.19
A13U G16A U54C A64U | 0.13
A13U G16C U41A U51A A56G A57G | 0.03
A13U G19A U41C A47U A56U U78A | 0.07
A13U G19C U26A A47U U51A A56G C79A | 0.19
A13U G19U C40U U48C U54A A64G U72A | 0.07
A13U G19U U51C | 0.08
A13U G22A U25C A28U U41C U49A | 0.16
A13U G22A U31C U78C | 0.04
A13U G24A A28C U31C U49C | 0.13
A13U G24A C29U U58A A65G | 0.04
A13U G24A U26C U49A U54A U76C | 0.09
A13U G24A U43A U54C | 0.08
A13U G30A A57U A65G | 0.33
A13U G30A U51A | 0.15

Variant | self-cleavage
A13U G30C U41C U60A C62G | 0.06
A13U G33A A35G U41C | 0.16
A13U G33A A35U U43A | 0.04
A13U G33A U49C | 0.32
A13U G33A U51C A56C | 0.18
A13U G33U U43A U60C A64G | 0.13
A13U G46A A64G | 0.11
A13U G46U U58C U60A | 0.1
A13U G52A C62A | 0.19
A13U G52A U67A | 0.61
A13U G53A U58C U60C | 0.36
A13U G55A U60C | 0.27
A13U G55U A56U | 0.61
A13U U25A A75G | 0.19
A13U U25A U41A C71G A77U | 0.05
A13U U25A U54A U60C U66C | 0.11
A13U U25A U66C U72C | 0.14
A13U U25C A28C U72C U80G | 0.11
A13U U25C C27A G30A U58C U78C | 0.06
A13U U25C C29G C40G U72A | 0.07
A13U U25C C29U U51C A56G A57G | 0.1

Variant | self-cleavage
A13U U25C C39U | 0.27
A13U U25C C40A | 0.14
A13U U25C C40U U72A U78C U80C | 0.19
A13U U25C C44A G53U A65G U76C | 0.05
A13U U25C U26A A47G U67G U72A | 0.03
A13U U25C U26C U51C A64C | 0.05
A13U U25C U41A U48C U74A | 0.12
A13U U25C U51C | 0.08
A13U U25C U78C | 0.18
A13U U25C U80C | 0.33
A13U U25G A57G U72A | 0.08
A13U U25G U69A U72C U80C | 0.08
A13U U26A A35G U58C U66C U67A U78G | 0.49
A13U U26A A57G | 0.9
A13U U26A A57G U72A | 0.2
A13U U26A A75U U80C | 1.21
A13U U26A U31A U60C U78C | 0.12
A13U U26A U41A A56G | 0.21
A13U U26C A45C U74G | 0.72
A13U U26C U41C A47G U54C G61A | 0.13
A13U U26C U49G U80C | 0.17

Variant | self-cleavage
A13U U26C U74C | 0.74
A13U U26G A56G U76A | 0.24
A13U U31A A35U | 0.14
A13U U31A A65U | 0.1
A13U U31A C38A | 0.38
A13U U31A G33U C62U | 0.07
A13U U31A U43C A64U A65G C79U | 0.06
A13U U31A U48C | 0.27
A13U U31A U49A U66A | 0.2
A13U U31A U67A U74C U80C | 0.2
A13U U31C A45G U51C A75G | 0.12
A13U U31C A65G G73A | 0.58
A13U U31C U48C U58A | 0.06
A13U U31G U60C | 0.1
A13U U41A A45G | 0.16
A13U U41C A47G A65G U78C | 0.63
A13U U41C A64G U80A | 1
A13U U41C A65U | 0.34
A13U U43A A57G U78C | 0.99
A13U U43A G63A | 1.09
A13U U43C A45G U49C | 0.11
